{"source": "the supplement of paper PMC3334620", "note": "In all, about 33,000 sequences were measured (“E-score (-0.5 to 0.5)”: median about -0.053, highest 2% from about 0.37 on). Some of the results follow.", "data": [{"target": "Hap1 (UniProt P0CE41)", "sequence (P0CE41 whole entry, the tested form may be a part)": "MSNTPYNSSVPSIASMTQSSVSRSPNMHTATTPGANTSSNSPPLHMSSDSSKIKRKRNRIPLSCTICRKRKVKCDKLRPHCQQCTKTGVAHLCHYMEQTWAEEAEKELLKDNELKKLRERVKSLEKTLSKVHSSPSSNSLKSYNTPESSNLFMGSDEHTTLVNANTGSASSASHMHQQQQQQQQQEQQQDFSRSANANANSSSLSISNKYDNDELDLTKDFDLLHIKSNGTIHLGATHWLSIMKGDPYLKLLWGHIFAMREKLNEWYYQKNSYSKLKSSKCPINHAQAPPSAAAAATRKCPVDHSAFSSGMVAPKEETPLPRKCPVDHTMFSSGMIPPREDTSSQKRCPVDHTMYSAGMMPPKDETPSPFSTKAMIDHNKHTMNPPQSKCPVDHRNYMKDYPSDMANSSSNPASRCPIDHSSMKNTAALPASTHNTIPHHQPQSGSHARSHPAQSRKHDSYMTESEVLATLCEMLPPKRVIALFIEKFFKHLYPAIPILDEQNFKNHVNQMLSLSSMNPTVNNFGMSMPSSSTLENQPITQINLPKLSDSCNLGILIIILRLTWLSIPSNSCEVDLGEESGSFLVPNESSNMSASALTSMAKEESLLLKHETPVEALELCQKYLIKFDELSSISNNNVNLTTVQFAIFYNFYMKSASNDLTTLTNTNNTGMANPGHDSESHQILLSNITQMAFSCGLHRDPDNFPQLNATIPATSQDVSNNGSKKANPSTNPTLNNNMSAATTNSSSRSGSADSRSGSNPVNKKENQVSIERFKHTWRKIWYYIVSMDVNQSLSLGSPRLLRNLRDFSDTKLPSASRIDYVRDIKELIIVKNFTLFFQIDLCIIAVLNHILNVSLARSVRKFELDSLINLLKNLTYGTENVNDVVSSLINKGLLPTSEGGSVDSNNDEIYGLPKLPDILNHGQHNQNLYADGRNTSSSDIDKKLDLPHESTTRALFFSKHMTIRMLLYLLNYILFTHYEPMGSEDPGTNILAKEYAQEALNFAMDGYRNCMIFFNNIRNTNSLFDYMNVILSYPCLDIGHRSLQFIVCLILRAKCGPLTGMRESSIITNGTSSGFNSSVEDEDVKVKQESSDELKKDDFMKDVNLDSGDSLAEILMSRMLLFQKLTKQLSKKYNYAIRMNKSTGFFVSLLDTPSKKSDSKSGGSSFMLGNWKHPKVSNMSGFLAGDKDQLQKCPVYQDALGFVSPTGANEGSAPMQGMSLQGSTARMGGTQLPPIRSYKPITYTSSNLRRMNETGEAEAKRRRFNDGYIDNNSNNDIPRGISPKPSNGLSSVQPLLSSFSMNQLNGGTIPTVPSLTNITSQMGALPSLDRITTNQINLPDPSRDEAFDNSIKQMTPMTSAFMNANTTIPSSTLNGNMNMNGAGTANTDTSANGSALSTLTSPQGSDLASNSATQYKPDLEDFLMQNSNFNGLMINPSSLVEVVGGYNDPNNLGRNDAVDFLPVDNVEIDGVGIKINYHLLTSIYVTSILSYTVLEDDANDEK", "assay": "PBM E-score (8-mer binding enrichment) (E-score (-0.5 to 0.5)); higher = stronger / more preferred TF binding; most listed sequences are background and not binding sites", "conditions": "protein concentration: 200 nM; construct: GST-DNA-binding domain", "method_in_brief": "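Universal all-10-mer Agilent arrays, fresh or stripped once, were converted to double-stranded form by primer extension. GST-tagged yeast transcription factors from PURExpress in vitro transcription/translation, full-length or DNA-binding domain only, were applied at about 100-200 nM and detected with fluorescent anti-GST. After masliner normalisation, the Universal PBM Analysis Suite scored each ungapped eight-base word together with its reverse complement by E-score.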", "values": [{"sequence": "GCGTAACC", "PBM E-score": 0.011}, {"sequence": "CGCCACCA", "PBM E-score": -0.08}, {"sequence": "ATGGTTAC", "PBM E-score": -0.199}, {"sequence": "CATATAGC", "PBM E-score": -0.049}, {"sequence": "AAGTAAAC", "PBM E-score": 0.0347}, {"sequence": "GTCGCCAC", "PBM E-score": -0.198}, {"sequence": "AAACAAAG", "PBM E-score": 0.0658}, {"sequence": "ATGGATAC", "PBM E-score": -0.0824}, {"sequence": "TCTGGTAA", "PBM E-score": -0.0353}, {"sequence": "CGATAGTC", "PBM E-score": 0.0708}, {"sequence": "TCATTTAA", "PBM E-score": -0.167}, {"sequence": "CGTGGCAA", "PBM E-score": -0.182}, {"sequence": "GTACCGAC", "PBM E-score": 0.191}, {"sequence": "AGAACTCT", "PBM E-score": -0.226}, {"sequence": "AGGCACCG", "PBM E-score": 0.00238}, {"sequence": "GAGAGGCA", "PBM E-score": 0.00691}, {"sequence": "CCACACCA", "PBM E-score": -0.263}, {"sequence": "ATACCGGC", "PBM E-score": 0.398}, {"sequence": "CTGTTTAA", "PBM E-score": -0.136}, {"sequence": "AATCGCAA", "PBM E-score": 0.0133}, {"sequence": "CCTTCGTA", "PBM E-score": -0.123}, {"sequence": "CTTTCGGC", "PBM E-score": 0.348}, {"sequence": "CACATCTG", "PBM E-score": -0.23}, {"sequence": "AGTACGGG", "PBM E-score": -0.028}, {"sequence": "TAAGCTAA", "PBM E-score": -0.0186}, {"sequence": "GCTAATAC", "PBM E-score": 0.155}, {"sequence": "ACATTATA", "PBM E-score": -0.0878}, {"sequence": "CTCTTCCA", "PBM E-score": 0.0944}, {"sequence": "ATTACAAG", "PBM E-score": -0.0768}, {"sequence": "CACGGGGA", "PBM E-score": 0.189}, {"sequence": "TTGATAAA", "PBM E-score": -0.0645}, {"sequence": "ATAACGGG", "PBM E-score": 0.228}, {"sequence": "ATGAATCA", "PBM E-score": -0.159}, {"sequence": "GACAAGTC", "PBM E-score": -0.131}, {"sequence": "CCGTATCA", "PBM E-score": 0.101}, {"sequence": "CACTTTAC", "PBM E-score": -0.0959}, {"sequence": "ATTAAGGC", "PBM E-score": 0.0606}, {"sequence": "CGTCTAAC", "PBM E-score": 0.047}, {"sequence": "CTAATCAA", "PBM E-score": -0.0299}, {"sequence": "AGGACGCC", "PBM E-score": -0.0953}, {"sequence": "CAGCGAAA", "PBM E-score": -0.0174}, {"sequence": "GGTTACGA", "PBM E-score": -0.0956}, {"sequence": "ATGGGGTG", "PBM E-score": -0.177}, {"sequence": "GTGGCCTA", "PBM E-score": -0.0999}, {"sequence": "CCCTTTCA", "PBM E-score": -0.203}, {"sequence": "GGGTGGCA", "PBM E-score": -0.0189}, {"sequence": "GGTCCCAC", "PBM E-score": 0.0838}, {"sequence": "AGACGCGC", "PBM E-score": -0.0167}, {"sequence": "AAGAATGT", "PBM E-score": -0.0998}, {"sequence": "CGACCCGA", "PBM E-score": 0.23}, {"sequence": "CCAGGCGG", "PBM E-score": 0.0355}, {"sequence": "AGGTCGAA", "PBM E-score": -0.166}, {"sequence": "CATACACG", "PBM E-score": -0.102}, {"sequence": "CTGCAGGA", "PBM E-score": -0.126}, {"sequence": "CAGGTAAG", "PBM E-score": -0.144}, {"sequence": "CGAGCTCA", "PBM E-score": 0.169}, {"sequence": "AGGCGGTA", "PBM E-score": -0.131}, {"sequence": "GTAAGCGA", "PBM E-score": 0.00644}, {"sequence": "CCATAAAC", "PBM E-score": -0.0452}, {"sequence": "TCCGAGAA", "PBM E-score": 0.381}, {"sequence": "GAATGACA", "PBM E-score": -0.174}, {"sequence": "AATAGCGT", "PBM E-score": 0.0408}, {"sequence": "ATGATGCA", "PBM E-score": -0.258}, {"sequence": "ATTGCATA", "PBM E-score": -0.0926}, {"sequence": "AACACGAG", "PBM E-score": -0.156}, {"sequence": "CCGCAGAG", "PBM E-score": -0.0644}, {"sequence": "AGCTAACC", "PBM E-score": -0.0159}, {"sequence": "ACTGATAT", "PBM E-score": -0.081}, {"sequence": "ACACAAAT", "PBM E-score": 0.0159}, {"sequence": "AAGCATGG", "PBM E-score": -0.0785}, {"sequence": "CAACACTG", "PBM E-score": -0.242}, {"sequence": "CGCTACCC", "PBM E-score": -0.0271}, {"sequence": "AAACTGCC", "PBM E-score": -0.0803}, {"sequence": "CGTTCAGA", "PBM E-score": -0.209}, {"sequence": "AGTACAAA", "PBM E-score": -0.174}, {"sequence": "CGGCGATA", "PBM E-score": 0.472}, {"sequence": "CGATAACA", "PBM E-score": 0.348}, {"sequence": "ATATAGCA", "PBM E-score": -0.23}, {"sequence": "ACACGCGG", "PBM E-score": 0.156}, {"sequence": "GCTACACC", "PBM E-score": -0.113}, {"sequence": "CAAACCAA", "PBM E-score": -0.134}, {"sequence": "ACATGTAG", "PBM E-score": -0.081}, {"sequence": "GCCTGGAA", "PBM E-score": -0.233}, {"sequence": "GATCGGAC", "PBM E-score": 0.413}, {"sequence": "ATATGCAC", "PBM E-score": -0.137}, {"sequence": "AGGTGGTC", "PBM E-score": -0.176}, {"sequence": "GTTACCCA", "PBM E-score": -0.126}, {"sequence": "ATCGTTGG", "PBM E-score": -0.0823}, {"sequence": "AAGTATCA", "PBM E-score": -0.109}, {"sequence": "AAGATTAC", "PBM E-score": 0.0663}, {"sequence": "ACCTGAGG", "PBM E-score": -0.23}, {"sequence": "GCGATAGA", "PBM E-score": 0.223}, {"sequence": "CCGCGAAA", "PBM E-score": 0.276}, {"sequence": "AGCCGTGC", "PBM E-score": -0.00546}, {"sequence": "ACTTAATA", "PBM E-score": -0.0171}, {"sequence": "ACGCCAAA", "PBM E-score": -0.08}, {"sequence": "CAAAGCTA", "PBM E-score": -0.0227}, {"sequence": "GGATTGAC", "PBM E-score": 0.0252}, {"sequence": "GTCGTACA", "PBM E-score": -0.068}, {"sequence": "ATGCGGAA", "PBM E-score": 0.24}, {"sequence": "CCACACGG", "PBM E-score": 0.0602}, {"sequence": "AACACTAC", "PBM E-score": -0.188}, {"sequence": "CGGCACAG", "PBM E-score": 0.187}, {"sequence": "GAGATTTA", "PBM E-score": 0.0904}, {"sequence": "AGAATCGC", "PBM E-score": 0.141}, {"sequence": "CACTATGC", "PBM E-score": -0.0998}, {"sequence": "GACGATAA", "PBM E-score": 0.0929}, {"sequence": "CCGACTAG", "PBM E-score": 0.139}, {"sequence": "AAATTTAT", "PBM E-score": 0.0775}, {"sequence": "CTTAATGA", "PBM E-score": -0.14}, {"sequence": "AGCGGCAT", "PBM E-score": 0.205}, {"sequence": "GTCCAGGA", "PBM E-score": -0.33}, {"sequence": "GCATTTCC", "PBM E-score": 0.0931}, {"sequence": "TTCACCAA", "PBM E-score": -0.139}, {"sequence": "AGTATCAC", "PBM E-score": -0.0541}, {"sequence": "GATCTTCC", "PBM E-score": 0.132}, {"sequence": "AATCACGG", "PBM E-score": 0.205}, {"sequence": "AGAAGCCA", "PBM E-score": -0.0747}, {"sequence": "ATGAGGAG", "PBM E-score": -0.155}, {"sequence": "CCCGTCAC", "PBM E-score": 0.21}, {"sequence": "ATCGATGC", "PBM E-score": 0.0699}, {"sequence": "CAGGTACC", "PBM E-score": -0.145}, {"sequence": "AGTCTGCG", "PBM E-score": -0.376}, {"sequence": "GAAGCGTC", "PBM E-score": -0.117}, {"sequence": "GAACGGGC", "PBM E-score": -0.0275}, {"sequence": "CCTCCTCG", "PBM E-score": -0.147}, {"sequence": "CACATGGG", "PBM E-score": -0.229}, {"sequence": "AGCATCCC", "PBM E-score": -0.0528}, {"sequence": "AGACCGAT", "PBM E-score": 0.35}, {"sequence": "AGTGGGTA", "PBM E-score": 0.123}, {"sequence": "GTTGGGGA", "PBM E-score": -0.00945}, {"sequence": "CACGCAGA", "PBM E-score": -0.16}, {"sequence": "AAAAACGA", "PBM E-score": -0.157}, {"sequence": "TATGGGAA", "PBM E-score": -0.185}, {"sequence": "ACTACAAC", "PBM E-score": 0.00676}, {"sequence": "TCTCCGCA", "PBM E-score": 0.299}, {"sequence": "CCTCCCGC", "PBM E-score": 0.0238}, {"sequence": "ACAGGACC", "PBM E-score": -0.0163}, {"sequence": "GGTATCAA", "PBM E-score": 0.106}, {"sequence": "AGCACGAG", "PBM E-score": -0.0955}, {"sequence": "CGAGAACG", "PBM E-score": 0.178}, {"sequence": "AGGGATCC", "PBM E-score": 0.146}, {"sequence": "ATGTCGCG", "PBM E-score": 0.0235}, {"sequence": "GCGAGACC", "PBM E-score": -0.0495}, {"sequence": "ACTTGTTC", "PBM E-score": -0.117}, {"sequence": "GCTGACCA", "PBM E-score": -0.00634}, {"sequence": "GAAGAACC", "PBM E-score": 0.0508}, {"sequence": "AATGAATT", "PBM E-score": -0.0893}, {"sequence": "GCGTGAGA", "PBM E-score": 0.0273}, {"sequence": "ATTTTTGC", "PBM E-score": 0.0316}, {"sequence": "AACCTTTC", "PBM E-score": 0.0406}, {"sequence": "ATTGTCGG", "PBM E-score": 0.321}, {"sequence": "CGGAAAAG", "PBM E-score": 0.343}, {"sequence": "AACCAGCA", "PBM E-score": -0.143}, {"sequence": "CTAGAGCC", "PBM E-score": -0.103}, {"sequence": "CCACAACC", "PBM E-score": -0.072}, {"sequence": "AAGAGAGT", "PBM E-score": -0.114}, {"sequence": "CCTTAATA", "PBM E-score": -0.0697}, {"sequence": "GATGCATA", "PBM E-score": -0.0665}, {"sequence": "CCCCCCCA", "PBM E-score": -0.0859}, {"sequence": "ACTGGTGA", "PBM E-score": -0.245}, {"sequence": "CACTCTCC", "PBM E-score": 0.0718}, {"sequence": "CAAGATAG", "PBM E-score": -0.125}, {"sequence": "GGTACAGA", "PBM E-score": -0.147}, {"sequence": "CATCCTGC", "PBM E-score": -0.284}, {"sequence": "GCGATTAC", "PBM E-score": 0.0898}, {"sequence": "GACCGCGA", "PBM E-score": 0.19}, {"sequence": "CCACTCAC", "PBM E-score": -0.079}, {"sequence": "CATGCGGC", "PBM E-score": -0.15}, {"sequence": "ATAGCAAA", "PBM E-score": -0.248}, {"sequence": "GTATGAGA", "PBM E-score": -0.0236}, {"sequence": "GCAAGCCC", "PBM E-score": 0.0811}]}]}
